Common to all, as to assay: ELISA
The target in experiment [1] is T1, human CLDN18.2 (human, UniProt P56856).
Experiment [2] deals with T1, human CLDN18.2. The source holds these as a separate data set.
The target of experiment [3] is T2, mouse CLDN18.2 (mouse, UniProt P56857).
T2 chain: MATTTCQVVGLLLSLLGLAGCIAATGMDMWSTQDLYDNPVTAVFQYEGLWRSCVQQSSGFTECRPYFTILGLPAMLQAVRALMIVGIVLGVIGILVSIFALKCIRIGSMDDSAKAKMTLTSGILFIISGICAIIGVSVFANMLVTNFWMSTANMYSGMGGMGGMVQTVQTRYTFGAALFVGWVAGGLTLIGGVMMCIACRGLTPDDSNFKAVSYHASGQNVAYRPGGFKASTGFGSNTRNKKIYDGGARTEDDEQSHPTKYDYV

Experiment [4] has as its target T1, human CLDN18.2. This is another data set of the same source.
Experiment [5] deals with T3, human CLDN18.1 (human, UniProt P56856).
T3 chain: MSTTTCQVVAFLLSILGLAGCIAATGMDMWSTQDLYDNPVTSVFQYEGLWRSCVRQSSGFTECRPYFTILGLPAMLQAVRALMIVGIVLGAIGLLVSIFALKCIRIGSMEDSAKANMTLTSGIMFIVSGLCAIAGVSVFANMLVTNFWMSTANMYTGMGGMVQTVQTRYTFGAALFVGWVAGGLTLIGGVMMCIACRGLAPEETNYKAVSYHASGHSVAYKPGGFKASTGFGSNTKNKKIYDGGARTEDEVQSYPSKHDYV

In experiment [6] the target is T1, human CLDN18.2. The source holds these as a separate data set.
The target in experiment [7] is T1, human CLDN18.2. The source holds these as a separate data set.
In experiment [8] the target is T1, human CLDN18.2. The source holds these as a separate data set.
The target of experiment [9] is T1, human CLDN18.2. The source holds these as a separate data set.
Experiment [10] deals with T1, human CLDN18.2. The source holds these as a separate data set.
Experiment [11] concerns the target T1, human CLDN18.2. This is another data set of the same source.
The target in experiment [12] is T1, human CLDN18.2. This is another data set of the same source.
Experiment [13] concerns the target T1, human CLDN18.2. The source holds these as a separate data set.
Experiment [14] concerns the target T1, human CLDN18.2. The source holds these as a separate data set.

Where a chain is given by its changes, count along the chain named. Where two headings read alike, the source gives them in different places.

Consider eight molecules from patent US11912763 (dated 2024).

B1: Ab14 (antibody)
chain 1: QVQLVQSGAEVKKPGSSVKVSCKASGYAFSNYLIEWVRQAPGQGLEWMGLINPGSGGTNYNEKFKGKVTITADKSTSTAYMELSSLRSEDTAVYYCARVYYGNSFAYWGQGTLVTVSS[human IgG1 constant region not shown]
chain 2: DIVMTQSPDSLAVSLGERATINCKSSQSLLNSGNNKNYLAWYQQKPGQPPKLLIYWASTRESGVPDRFSGSGSGTDFTLTISSLQAEDVAVYYCQNDYFYPFTFGQGTKLEIKRTVAAPSVFIFPPSDEQLKSGTASVVCLLNNFYPREAKVQWKVDNALQSGNSQESVTEQDSKDSTYSLSSTLTLSKADYEKHKVYACEVTHQGLSSPVTKSFNRGEC
Regarding B1, the EC50 in experiment [1] turned out to be 0.191 nM; in [2], 0.35 nM; in [3] it was 0.399 nM; in [4] it was 0.145 nM. Moreover, in experiment [5], the binding result was “no binding”.

B2: Ab13 (antibody)
chain 1: B1 chain 1 with K67R, K74E
chain 2: B1 chain 2
The molecule B2 returned a 50% effective concentration (EC50) in experiment [3] of 0.422 nM.

B3: LB4331 CLDN18.2 arm (antibody)
chain 1: QVQLVQSGAEVKKPGSSVKVSCKASGYAFSNYLIEWVKQAPGQGLEWIGLINPGSGGTNYNEKFKGKATITADKSTSTAYMELSSLRSEDTAVYYCARVYYGNSFAYWGQGTLVTVSSASTKGPSVFPLAPCSRSTSESTAALGCLVKDYFPEPVTVSWNSGALTSGVHTFPAVLQSSGLYSLSSVVTVPSSSLGTKTYTCNVDHKPSNTKVDKRV[human IgG4 Fc with S228P (EU numbers) not shown]AGGGGSGGGGSGGGGSSPGQGTQSENSCTHFPGNLPNMLRDLRDAFSRVKTFFQMKDQLDNLLLKESLLEDFKGYLGCQALSEMIQFYLEEVMPQAENQDPDIKAHVNSLGENLKTLRLRLRRCHRFLPCENKSKAVEQVKNAFNKLQEKGIYKAMSEFDIFINYIEAYMTMKIRN
chain 2: B1 chain 2 with N22S, N35Q, A40T
Turning to B3, a half-maximal effect in experiment [6] (EC50) was put at 0.75 nM.

B4: LB401 CLDN18.2 arm (antibody)
chain 1: QVQLVQSGAEVKKPGSSVKVSCKASGYAFSNYLIEWVKQAPGQGLEWIGLINPGSGGTNYNEKFKGKATITADKSTSTAYMELSSLRSEDTAVYYCARVYYGNSFAYWGQGTLVTVSS[human IgG1 constant region not shown]GGGGSGGGGSGGGGSGIPPHVQKSVNNDMIVTDNNGAVKFPQLCKFCDVRFSTCDNQKSCMSNCSITSICEKPQEVCVAVWRKNDENITLETVCHDPKLPYHDFILEDAASPKCIMKEKKKPGETFFMCSCSSDECNDNIIFSEEYNTSNPD
chain 2: B1 chain 2 with N22S, N35Q, A40T
On to B4, for which the EC50 in experiment [7] is 0.162 nM; in experiment [8] it was 0.11 nM; in experiment [9], 0.424 nM; in experiment [10], 0.127 nM.

B5: LB4335 CLDN18.2 arm (antibody)
chain 1: QVQLVQSGAEVKKPGSSVKVSCKASGYAFSNYLIEWVKQAPGQGLEWIGLINPGSGGTNYNEKFKGKATITADKSTSTAYMELSSLRSEDTAVYYCARVYYGNSFAYWGQGTLVTVSSASTKGPSVFPLAPSSKSTSGGTAALGCLVKDYFPEPVTVSWNSGALTSGVHTFPAVLQSSGLYSLSSVVTVPSSSLGTQTYICNVNHKPSNTKVDKKV[human IgG1 Fc with changes not shown]AGGGGSGGGGSGGGGSSPGQGTQSENSCTHFPGNLPNMLRDLRDAFSRVKTFFQMKDQLDNLLLKESLLEDFKGYLGCQALSEMIQFYLEEVMPQAENQDPDIKAHVNSLGENLKTLRLRLRRCHRFLPCENKSKAVEQVKNAFNKLQEKGIYKAMSEFDIFINYIEAYMTMKIRN
chain 2: B1 chain 2 with N22S, N35Q, A40T
Molecule B5 displayed a half-maximal effective concentration (EC50) in experiment [6] of 0.88 nM.

B6: LB4333 CLDN18.2 arm (antibody)
chain 1: QVQLVQSGAEVKKPGSSVKVSCKASGYAFSNYLIEWVKQAPGQGLEWIGLINPGSGGTNYNEKFKGKATITADKSTSTAYMELSSLRSEDTAVYYCARVYYGNSFAYWGQGTLVTVSS[human IgG1 constant region with L234A (EU numbers) not shown]GGGGSGGGGSGGGGSSPGQGTQSENSCTHFPGNLPNMLRDLRDAFSRVKTFFQMKDQLDNLLLKESLLEDFKGYLGCQALSEMIQFYLEEVMPQAENQDPDIKAHVNSLGENLKTLRLRLRRCHRFLPCENKSKAVEQVKNAFNKLQEKGIYKAMSEFDIFINYIEAYMTMKIRN
chain 2: B1 chain 2 with N22S, N35Q, A40T
Take B6: in [6], the response was half-maximal at 0.91 nM (EC50).

B7: Ab12 (antibody)
chain 1: B1 chain 1
chain 2: B1 chain 2 with N22S
On to B7, for which the EC50 in experiment [1] was determined as 0.19 nM. Further, the binding result in [5] is on record as “no binding”.

B8: LB433 CLDN18.2 arm (antibody)
chain 1: QVQLVQSGAEVKKPGSSVKVSCKASGYAFSNYLIEWVKQAPGQGLEWIGLINPGSGGTNYNEKFKGKATITADKSTSTAYMELSSLRSEDTAVYYCARVYYGNSFAYWGQGTLVTVSS[human IgG1 constant region not shown]GGGGSGGGGSGGGGSSPGQGTQSENSCTHFPGNLPNMLRDLRDAFSRVKTFFQMKDQLDNLLLKESLLEDFKGYLGCQALSEMIQFYLEEVMPQAENQDPDIKAHVNSLGENLKTLRLRLRRCHRFLPCENKSKAVEQVKNAFNKLQEKGIYKAMSEFDIFINYIEAYMTMKIRN
chain 2: B1 chain 2 with N22S, N35Q, A40T
Take B8: the EC50 in experiment [11] came out at 0.86 nM; in [12], 0.286 nM; in experiment [13], 0.161 nM; in [6], 0.86 nM; in experiment [14] it was 0.264 nM.

Usually EC50 stands for the midpoint of the concentration-response curve. Read a high EC50 as weaker potency.
